Test results taken from PMC10164576, “Interaction with the carboxy-terminal tip of SSB is critical for RecG function in E. coli” (Nucleic Acids Research, 2023).
Substitutions are numbered along the chain they refer to. Results are given in words; binding and its absence hold for the method and conditions named. Some entries that bind do so weakly or less than the wild type.

Sequences of proteins named here, by UniProt entry; tags and fusion partners are left off.
UniProt P0AGE0: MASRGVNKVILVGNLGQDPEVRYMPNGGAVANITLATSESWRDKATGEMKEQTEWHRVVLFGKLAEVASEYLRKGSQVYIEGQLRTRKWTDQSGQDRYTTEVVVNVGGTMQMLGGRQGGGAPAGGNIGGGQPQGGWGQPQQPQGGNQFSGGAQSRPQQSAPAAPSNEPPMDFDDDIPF

What was measured:
Experiment in all cases: two-hybrid; Gal4 DNA-binding domain (pGBD) and activation domain (pGAD) fusions in S. cerevisiae pJ69-4a; growth on SD His- and Ade-deficient plates, 30°C, 4-5 days
[1] = target: T1, RecG R474E Gal4 hybrid (E. coli) (UniProt P24230)
T1 sequence: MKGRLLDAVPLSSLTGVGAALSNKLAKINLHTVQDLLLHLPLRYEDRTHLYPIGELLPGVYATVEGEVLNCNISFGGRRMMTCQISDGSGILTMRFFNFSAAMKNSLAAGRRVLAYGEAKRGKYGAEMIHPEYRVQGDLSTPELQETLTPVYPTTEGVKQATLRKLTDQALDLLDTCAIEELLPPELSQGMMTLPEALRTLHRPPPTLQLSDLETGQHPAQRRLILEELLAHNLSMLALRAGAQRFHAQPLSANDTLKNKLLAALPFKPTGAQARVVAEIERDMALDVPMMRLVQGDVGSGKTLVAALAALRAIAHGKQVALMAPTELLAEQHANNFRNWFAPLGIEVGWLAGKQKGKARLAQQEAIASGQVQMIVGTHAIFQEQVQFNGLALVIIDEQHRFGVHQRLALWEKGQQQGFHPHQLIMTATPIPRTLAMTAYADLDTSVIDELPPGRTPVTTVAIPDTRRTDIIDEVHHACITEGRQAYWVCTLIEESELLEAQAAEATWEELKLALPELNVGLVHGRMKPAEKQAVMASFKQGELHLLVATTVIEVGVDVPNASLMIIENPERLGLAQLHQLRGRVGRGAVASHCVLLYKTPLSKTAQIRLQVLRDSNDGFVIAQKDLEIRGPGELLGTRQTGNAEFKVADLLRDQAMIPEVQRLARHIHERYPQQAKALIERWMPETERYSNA

[2] = target: T2, RecG R467E Gal4 hybrid (E. coli) (UniProt P24230)
T2 sequence: T1 sequence with R467E, E474R

[3] = target: T3, RecG M80A Gal4 hybrid (E. coli) (UniProt P24230)
T3 sequence: T1 sequence with M80A, E474R

binding [1]: no binding
binding [2]: no binding
binding [3]: binds
Substance: SSB Gal4 hybrid (from UniProt P0AGE0 1-178)
